From ChEMBL document CHEMBL1201862, “PubChem BioAssay data set” (2004) come the findings set out here.

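Each compound was tested at five concentrations against cells in 96-well plates for 48 hours. Here, GI50 denotes the concentration required for 50% inhibition of growth.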 Activity calls are given as the source filed them. Rule as the data show it: active = GI50 up to about 1.1 µM and inactive = higher. A value given as a limit tells only on which side of the number the result lay.

The assay has as its system NCI-H322M. Description: inhibition of tumour cell growth, NCI panel, 48 h.
Take `Cc1ccc(C)c(C2NC(=O)c3ccccc3N2)c1` (configuration not stated): the GI50 was inactive: 5.41 µM.

Consider `CN(C)c1ccc(/C=C2\C[C@H]3[C@@H]4CCc5cc(O)ccc5[C@H]4CC[C@]3(C)C2=O)cc1`, for which the GI50 was inactive: 50.6 µM.

Take `COc1ccc2c(c1)[n+]([O-])c(C(=O)C/C(=N/OCCCc1ccccc1)C(=O)NC13CC4CC(CC(C4)C1)C3)c(C)[n+]2[O-]`: the GI50 was inactive: > 100 µM.

Turning to `CC1(c2cc3c(cc2Br)OCO3)SCCCS1`, the GI50 was inactive: 33.2 µM.

Regarding `CC(=O)Nc1cc(C(=O)Nc2cc(C(=O)Nc3cc(C(=O)Nc4cc(C(=O)Nc5cc(C(=O)NCCC(=O)NCCCN(C)C)n(C)c5)n(C)c4)n(C)c3)n(C)c2)n(C)c1`, the GI50 was inactive: > 100 µM.

Take `Nc1nc2c(c(=O)[n-]1)[n+](CCO)cn2C1OC(CO)C(O)C1O` (configuration not stated): the GI50 was inactive: > 100 µM.

In the case of `O=C1/C(=C\c2ccc(-c3ccc(Cl)cc3Cl)o2)SC2NC(COc3ccc(Cl)cc3)=NN12` (configuration not stated), the GI50 was inactive: > 100 µM.

On to `CCCNCCCC(NC(C)=O)C(=O)NCc1ccccc1` (configuration not stated), for which the GI50 was inactive: > 100 µM.

Regarding `CN(CC(=O)O)c1ncc2c(n1)-c1ccccc1OC2`, the GI50 is inactive: > 100 µM.

`O=C(C=P(c1ccccc1)(c1ccccc1)c1ccccc1)c1cccc(-c2cccc([N+](=O)[O-])c2)c1`: the GI50 was inactive: 3.4 µM.

With `COc1c(/C=C/C=O)cc2c(c1OC)OCO2`, the GI50 is inactive: > 100 µM.

`O=[N+]([O-])C(=C(c1ccccc1)c1ccccc1)[N+](=O)[O-]`: the GI50 is inactive: 17.5 µM.

`c1ccc2c(c1)ncn2CCn1ccnc1`: the GI50 was inactive: > 100 µM.

For the molecule `Cc1ccc(S(=O)(=O)OCOS(=O)(=O)c2ccc(C)cc2)cc1`, the GI50 was inactive: > 100 µM.

For `COc1cc(O)c(/C=N/N=C(\N)NO)c(OC)c1`, the GI50 was inactive: 4.94 µM.

For `O=C1/C(=C/c2ccccc2)CCC/C1=C\c1ccc(O)c(CN2CCCCC2)c1`, the GI50 was inactive: 6.03 µM.

Regarding `NC(CO)C(=O)NCC(=O)O` (configuration not stated), the GI50 is inactive: > 100 µM.

As for `O=C1c2ccccc2C(=O)c2nn(N=P(CP(=Nn3nc4c(n3)C(=O)c3ccccc3C4=O)(c3ccccc3)c3ccccc3)(c3ccccc3)c3ccccc3)nc21`, the GI50 was inactive: > 100 µM.

With `CC1=C(C(=O)OCCO[N+](=O)[O-])C(c2ccccc2[N+](=O)[O-])C(C(=O)OC(C)C)=C(C)N1` (configuration not stated), the GI50 was inactive: 21 µM.

Take `Cc1c2cnccc2c(C)c2c1c1ccccc1n2CCCCCCCl`: the GI50 is inactive: > 50 µM.

Take `OC1COC2CC(Nc3ccccn3)OC12` (configuration not stated): the GI50 is inactive: > 100 µM.

As for `Cc1oc2c(c1C)S(=O)(=O)C(C#N)=C(N(C)C)N2`, the GI50 is inactive: > 100 µM.

Turning to `CC1(C)CC(=O)C(=CNC(=S)c2ccccc2)C(=O)C1`, the GI50 is inactive: > 100 µM.

On to `COc1cc(/C=C2\CCc3ccccc3C2=O)ccc1O`, for which the GI50 was inactive: 17 µM.

`CC(C)C(=O)/C=C/S/C=C/C(=O)C(C)C`: the GI50 is inactive: 33.1 µM.

For `CCC1(C)N=c2c(ncn2N=C(C)C)=C(C(N)=O)N1` (configuration not stated), the GI50 was inactive: > 100 µM.

`C[C@]12CC[C@H](O)CC1=CC[C@@H]1[C@@H]2CC[C@]2(C)/C(=N/OCCN3CCCC3)CC[C@@H]12`: the GI50 was inactive: 17.8 µM.

Regarding `NC(Cc1ncccn1)C(=O)O` (configuration not stated), the GI50 was inactive: > 100 µM.

Turning to `COC(=O)NN=C1C(C)(C)C(=NNC(=O)OC)C1(C)C`, the GI50 was inactive: > 100 µM.

Turning to `CCOC(=N)CC(=O)Nc1cccc(C)c1C`, the GI50 was inactive: > 100 µM.

With `COc1cccc2c1C(=O)c1c(O)c3c(c(O)c1C2=O)C[C@@](O)(C(=O)CO)CC3OC1CC(N)C(OC2CCCCO2)C(C)O1` (some centres not stated), the GI50 was inactive: 1.82 µM.

As to `COC(=O)C1[C@H](c2ccc3c(c2)OCO3)OC(=O)[C@]1(C(=O)OC)C(=O)c1ccc(OC)c(OC)c1` (some centres not stated), the GI50 was inactive: > 100 µM.
